Reference: PMC10668032
This is one part of the list. At the low end of the ranking, values are background and their order means little.

molecular target: SIX1-Q177R homeodomain (UniProt Q15475); assay: universal protein binding microarray; details: Universal all-10-mer PBM (8x60K, AMADID 030236), 300 nM GST-tagged protein, Alexa Fluor 488 anti-GST; buffer, salt, pH and temperature not stated; high values mean tight binding; most listed sequences are background and not binding sites; double strand, one strand shown

| Sequence | binding signal |
| --- | --- |
| CTTCTGCC | -0.177 E-score |
| GATCCTAA | -0.00228 E-score |
| AAAGAACG | -0.0893 E-score |
| ATGTCCAA | -0.198 E-score |
| ATCGCAGA | 0.00534 E-score |
| AAGGAGCA | -0.157 E-score |
| GATCACTA | 0.0458 E-score |
| ATGTCGGC | -0.0929 E-score |
| GTACCTGA | 0.104 E-score |
| ACATTTTG | -0.185 E-score |
| AACTACGA | -0.00467 E-score |
| AACTATGA | -0.0603 E-score |
| AAACAGCG | -0.101 E-score |
| AAAAGGTT | -0.3 E-score |
| CAACTTTC | -0.16 E-score |
| ATACTCAA | 0.092 E-score |
| ACAACTCG | 0.0777 E-score |
| GAAACGGC | -0.142 E-score |
| CATTCACC | -0.127 E-score |
| AAACCCTA | 0.157 E-score |
| AGAGGACC | 0.0123 E-score |
| ACGAGATC | -0.148 E-score |

| Sequence | binding signal |
| --- | --- |
| TGTTCGAA | 0.089 E-score |
| AGTAATCC | -0.0178 E-score |
| TCTCTCCA | -0.0788 E-score |
| AAGAGCTA | -0.0801 E-score |
| AGTGGAAA | -0.0983 E-score |
| TCGTCACA | 0.0535 E-score |
| GCAGACCA | -0.259 E-score |
| ACGTGGAG | -0.00873 E-score |
| TCCAACCA | -0.0192 E-score |
| GATACGAA | -0.0533 E-score |
| CGCGTCAC | 0.0988 E-score |
| CCTGAATA | 0.0856 E-score |
| CCTCAGGA | -0.155 E-score |
| CATACAAG | -0.0137 E-score |
| CGGGCTCA | 0.142 E-score |
| GACGTACA | 0.0635 E-score |
| AATCGATG | 0.0677 E-score |
| CAACGGCC | -0.177 E-score |
| AAACAGGG | -0.0897 E-score |
| AGTCAGAG | 0.156 E-score |
| CATGACAA | -0.0242 E-score |
| CGAATAGA | -0.0564 E-score |

| Sequence | binding signal |
| --- | --- |
| GCATATCA | -0.208 E-score |
| GATAAATC | -0.0921 E-score |
| ATATACGC | -0.161 E-score |
| ATGAACCG | 0.0408 E-score |
| GGTATGAC | 0.0249 E-score |
| CAGATGAA | -0.202 E-score |
| TCCAAAGA | -0.127 E-score |
| AACCGGAA | -0.257 E-score |
| ACACTGGA | 0.391 E-score |
| TGTGTAAA | 0.235 E-score |
| GCAGGGAC | -0.103 E-score |
| CAGAATTA | -0.154 E-score |
| CAGCAGTC | -0.0439 E-score |
| AGGCAGTG | 0.0878 E-score |
| AAGTGGGG | 0.0947 E-score |
| CTCCAAAG | -0.146 E-score |
| CGAGAGGC | -0.153 E-score |
| GATAGTCA | -0.0833 E-score |
| CCTAAGCG | -0.052 E-score |
| AAACGCGG | 0.0564 E-score |
| CAGTCCTA | 0.0146 E-score |
| ACTGCCTG | -0.0387 E-score |

| Sequence | binding signal |
| --- | --- |
| GAGACCGC | -0.155 E-score |
| GTAGTTCA | -0.0394 E-score |
| GCGCGAGC | -0.0531 E-score |
| CTTCGTTC | -0.156 E-score |
| CCTAAACC | -0.067 E-score |
| AAGCCGGG | 0.101 E-score |
| CCAGTTAG | 0.111 E-score |
| CTGGGCCC | -0.0728 E-score |
| ATGTCTAG | -0.213 E-score |
| CTATCGTA | 0.101 E-score |
| GTGCTAAA | 0.0974 E-score |
| CTAGAAGA | -0.137 E-score |
| CTACAACC | 0.0395 E-score |
| AAAAGCTG | -0.0483 E-score |
| CCGGTCAC | 0.0794 E-score |
| ATGAGAGA | -0.133 E-score |
| GTTAGACA | 0.214 E-score |
| ACTACAAA | 0.0719 E-score |
| GCACACAA | -0.00891 E-score |
| CAGCGCTG | 0.0146 E-score |
